# Laboratory results reported in article PMC4336329 (PLoS ONE, 2015).
# Out of some 310,000 compounds screened, about 14,000 (4.5%) showed an effect of 50% or more. Effects have a minus sign here. The list shows a part of the results.
# Target: human ether-à-go-go-related gene (hERG) potassium channel (human, UniProt Q12809)
# Experiment: primary screen, population patch clamp on CHO cells stably expressing hERG
# 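Note: peak tail current of the secondary pulse compared with the same well before compound.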
# Sequence of human ether-à-go-go-related gene (hERG) potassium channel (Q12809 whole entry, looked up): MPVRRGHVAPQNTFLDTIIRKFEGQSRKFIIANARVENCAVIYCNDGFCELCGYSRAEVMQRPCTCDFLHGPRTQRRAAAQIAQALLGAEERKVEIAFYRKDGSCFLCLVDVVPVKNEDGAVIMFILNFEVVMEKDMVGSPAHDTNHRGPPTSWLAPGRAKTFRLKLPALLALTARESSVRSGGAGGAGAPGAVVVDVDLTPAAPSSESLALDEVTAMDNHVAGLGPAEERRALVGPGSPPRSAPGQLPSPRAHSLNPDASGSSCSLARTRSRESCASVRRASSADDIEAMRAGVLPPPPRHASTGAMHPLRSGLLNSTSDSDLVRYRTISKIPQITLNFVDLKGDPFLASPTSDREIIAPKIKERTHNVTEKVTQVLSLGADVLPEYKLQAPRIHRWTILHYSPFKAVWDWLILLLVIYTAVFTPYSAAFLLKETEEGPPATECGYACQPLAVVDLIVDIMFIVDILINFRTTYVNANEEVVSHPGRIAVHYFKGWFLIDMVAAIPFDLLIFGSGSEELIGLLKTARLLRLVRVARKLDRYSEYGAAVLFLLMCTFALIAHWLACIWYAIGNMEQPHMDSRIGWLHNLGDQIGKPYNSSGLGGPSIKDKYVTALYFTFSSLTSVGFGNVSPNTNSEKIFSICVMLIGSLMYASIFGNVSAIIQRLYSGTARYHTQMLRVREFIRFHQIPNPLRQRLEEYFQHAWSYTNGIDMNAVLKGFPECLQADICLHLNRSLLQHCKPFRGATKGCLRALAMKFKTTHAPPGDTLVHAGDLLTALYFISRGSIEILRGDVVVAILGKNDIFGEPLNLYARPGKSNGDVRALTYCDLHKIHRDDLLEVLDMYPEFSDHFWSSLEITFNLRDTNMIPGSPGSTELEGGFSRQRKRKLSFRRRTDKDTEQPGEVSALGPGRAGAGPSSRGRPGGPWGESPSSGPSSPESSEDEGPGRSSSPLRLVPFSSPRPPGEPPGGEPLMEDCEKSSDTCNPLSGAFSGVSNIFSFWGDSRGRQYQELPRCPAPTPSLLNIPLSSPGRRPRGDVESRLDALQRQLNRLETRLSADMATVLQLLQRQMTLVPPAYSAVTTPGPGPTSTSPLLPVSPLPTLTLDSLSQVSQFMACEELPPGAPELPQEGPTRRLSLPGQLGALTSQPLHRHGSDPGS
row,SMILES,"hERG current change (%, negative = inhibition) at 10uM"
1,COc1ccccc1Nc1nc(-c2ccc([N+](=O)[O-])cc2)nc2ccccc12,0.467%
2,O=C(/C=C/c1ccc(F)cc1)NCCCn1ccnc1,-31.9%
3,Cc1ccc(NCCC(=O)c2cccc([N+](=O)[O-])c2)c(C)c1,-22.4%
4,Cc1ccc(Nc2cc(C(=O)NCCCN3CCOCC3)c3ccccc3n2)cc1C,-18.6%
5,CCCn1nc(C(=O)NC2CCCc3ccccc32)c2ccccc2c1=O (stereo not shown),-13.2%
6,FC(F)(F)COc1nc(N2CCOCC2)nc(N(c2ccccc2)c2ccccc2)n1,-11.6%
7,CN1CCN(C(CNC(=O)C(=O)Nc2ccc3c(c2)OCO3)c2ccc(F)cc2)CC1 (stereo not shown),-44.3%
8,COc1ccc(-c2c(C)nn(-c3ccccc3)c2N)cc1OC,-5.57%
9,CCOC(=O)c1ccc(NS(=O)(=O)c2cnc[nH]2)cc1,6.27%
10,N=c1n(-c2ccccc2)c(O)cc(=O)n1-c1ccccc1,-6.28%
11,O=C(Nc1ccccc1C(=O)NCc1ccco1)c1ccccc1,-20.4%
12,Cc1ccc(NC(=O)COC(=O)C2CC2(Cl)Cl)cc1C (stereo not shown),-4.06%
13,CC(C)(C)CN1C(=O)C(=O)NC[C@H]1Cc1cccc2ccccc12,-2.97%
14,COc1cc(C(=S)N2CCCC2)cc(OC)c1OC,5.49%
15,Cc1ccc(S(=O)(=O)c2cnc(-c3ccccc3)nc2N2CCN(C)CC2)cc1,-49.1%
16,O=C(Nc1nccs1)c1cn(-c2ccccc2)nc1-c1ccncc1,-9.65%
17,Cc1ccc(C(=O)CCC(=O)OCC(=O)NNC(=O)c2ccccc2Cl)cc1,-1.96%
18,COc1cc(/C=N/Nc2cc(C)nc(NS(=O)(=O)c3ccccc3)n2)ccc1O,1.84%
19,O=C1CCCCN1CCC(=O)N1CCCC(Nc2ccccc2)C1 (stereo not shown),24.3%
20,CC12CN(C(=O)c3ccc(Cl)cc3)C3(C#N)CC1CCC23C (stereo not shown),-23%
21,O=C1CCCN1c1ccc(N2CCCC2=O)cc1,28.4%
22,O=C(Nc1c2c(nn1-c1cccc(Cl)c1)CS(=O)(=O)C2)c1ccco1,-37.9%

row,SMILES,"hERG current change (%, negative = inhibition) at 10uM"
1,O=C(Nc1cccc(C(F)(F)F)c1)C1CCCO1 (stereo not shown),13.5%
2,O=C(NS(=O)(=O)c1ccccc1)c1ccccc1F,3.38%
3,CN(C)C(CNC(=O)c1cccc(S(=O)(=O)N(C)C)c1)c1ccccc1 (stereo not shown),-5.71%
4,N#CC1=C(N)Oc2n[nH]c(-c3cccs3)c2C1c1cccnc1 (stereo not shown),1.87%
5,COC(=O)[C@H](Cc1ccccc1)NC(=O)O[C@@H]1C(=O)c2cc(Br)ccc2O[C@H]1c1cccc(OC)c1,13%
6,CC(=O)c1ccc(NS(=O)(=O)c2ccc(-c3cnc(C4CC4)o3)cc2)cc1,2.03%
7,Cc1cccc(OCC(=O)NNC(=O)CCCCC(=O)NNC(=O)COc2cccc(C)c2)c1,8.19%
8,O=C(NC1CC1)C1CCN(S(=O)(=O)c2cc([N+](=O)[O-])ccc2Cl)CC1,-28%
9,COc1ccc(C(=O)c2cc3c(cc2[N+](=O)[O-])OCCO3)cc1,-12.7%
10,CC(C)CN(C(=O)c1ccc2c(c1)OCCO2)c1c(N)n(Cc2ccccc2)c(=O)[nH]c1=O,1.66%
11,COc1ccc(NC(=O)Nc2ccccc2)cc1S(=O)(=O)N1CCCCC1,19.1%
12,O=C(CCCc1c[nH]c2ccccc12)NCc1ccccc1F,-18.8%
13,CCOC(=O)c1c(/N=C/c2cccc(C)c2O)sc2c1CCN(C)C2,-28.3%
14,CCCN1C(=O)c2ccc(C(=O)NCc3ccco3)cc2C1=O,-8.99%
15,Cc1ccc2nc(-c3ccc(NC(=O)CN4CCN(c5ccccn5)CC4)cc3)sc2c1,9.23%
16,COc1ccccc1C(=O)NCCc1c(C)[nH]c2c(C)ccc(F)c12,0.109%
17,CCOC(=O)C1CCN(C(=O)c2cc3ccc(OC)cc3[nH]2)CC1,12.5%
18,COc1ccc(C(=O)NC(=S)N2CCCC2)cc1,-14.7%
19,NC(=O)c1ccsc1NC(=O)CSc1nnc(C2CC2)n1Cc1ccccc1,-17.4%
20,COc1ccc(C(=O)/C=C/c2cccs2)c(OC(=O)c2cccc([N+](=O)[O-])c2)c1,5.34%
21,C=C(C)c1cccc(C(C)(C)NC(=O)N2CCN(c3ncccn3)CC2)c1,0.0429%
22,CCCCN(CCCC)S(=O)(=O)c1ccc2[nH]c(=O)[nH]c2c1,-6.47%

row,SMILES,"hERG current change (%, negative = inhibition) at 10uM"
1,COc1ccccc1N1CCN(C(c2cccs2)C(C)NC(=O)c2ccco2)CC1 (stereo not shown),-1.73%
2,Cc1ccc(-c2nc3cc(NC(=O)C(C)C)ccc3o2)cc1C,-0.795%
3,CCOc1cc(S(=O)(=O)Nc2ccc(Cl)cn2)ccc1Cl,5.67%
4,C/C(=C\c1ccco1)C1C(C#N)=C(N)OC2=C1C(=O)CC(C)(C)C2 (stereo not shown),-24.4%
5,O=C(NC1CCCCCC1)C1CCC(CNS(=O)(=O)c2ccc(Br)s2)CC1 (stereo not shown),19.7%
6,COc1ccc(Cl)cc1C(=O)NNC(=S)NC(=O)/C=C/c1ccco1,16.9%
7,CCO[C@@H]1OC(C(=O)N2CCN(Cc3ccc4c(c3)OCO4)CC2)=C[C@H](c2coc3ccccc3c2=O)[C@H]1CCCO,-33.6%
8,Cc1nc2ccccc2c(=O)n1-c1ccc(NS(=O)(=O)c2cc(F)ccc2F)cc1,-11.7%
9,O=C(N/N=C/c1cn(CC(=O)N2CCOCC2)c2ccccc12)c1cccnc1,16.3%
10,COc1ccccc1C1C(C(C)=O)=C(O)C(=O)N1c1ccc(O)cc1 (stereo not shown),-17.5%
11,COc1ccccc1NS(=O)(=O)c1ccc(NC(=O)c2[nH]nc(OC)c2[N+](=O)[O-])cc1,-0.642%
12,O=C(O)Cc1ccc(N=Nc2c(O)c(C(=O)O)cc3ccccc23)cc1,19.8%
13,N#Cc1ccccc1NC(=S)NC(=O)c1cccs1,14.5%
14,O=S1(=O)CC2N=C(N(Cc3c(F)cccc3Cl)c3ccccc3F)SC2C1 (stereo not shown),4.06%
15,Cc1ccc(C)c(C(=O)NC(C)CCc2ccccc2)c1 (stereo not shown),5.55%
16,COc1ccc(N(CCC#N)C(=O)/C(C#N)=C\c2cccs2)cc1,6.23%
17,CCOC(=O)C1(Cc2cccc(OC)c2)CCN(Cc2cccc(OC)c2O)CC1,-66%
18,COC(=O)c1ccccc1NC(=O)CSc1nc(N)cc(N)n1,-1.54%
19,CCc1ccc(CNC(=O)CCCn2c(=O)c3cccn3c3cccnc32)cc1,-26.2%
20,COc1ccc(-c2nn(-c3ccccc3)cc2C(=O)O)cc1OC,8.88%
21,Brc1ccc(Oc2ncc(CN3CCOCC3)s2)cc1,-19.4%
22,Cc1cccc(C)c1NC(=O)COC(=O)c1c2c(nc3ccccc13)/C(=C\c1ccc3c(c1)OCO3)CCC2,-6.69%

row,SMILES,"hERG current change (%, negative = inhibition) at 10uM"
1,COc1cc(OC)cc(C(=O)O/N=C(\N)c2cccc(C)c2)c1,2.05%
2,COc1ccc(NC(=O)CN(C)C(=O)C(Sc2ccccc2)c2ccccc2)cc1 (stereo not shown),-19.6%
3,Cc1cc(=O)n2[nH]c(-c3ccc(C(C)(C)C)cc3)cc2n1,-3%
4,CCc1ccccc1N(C1=NCCCS1)S(=O)(=O)c1ccc(C(C)(C)C)cc1,4.37%
5,CCCCOC(=O)Cn1cnc2ccc(Br)cc2c1=O,-30.1%
6,OC[C@@H](O)CCl,10.4%
7,CNc1nc(OC)nc(N(C#N)CN2C(=O)c3ccccc3S2(=O)=O)n1,-24.7%
8,CC(C)CC(C)N (stereo not shown),14.2%
9,Cc1cccc(-c2n[nH]c(=S)n2C)c1,22.7%
10,CCCCNC(=O)COC(=O)c1cc(C)oc1C,13.5%
11,C=CCn1sc(N)c(C(=O)OCC)c1=S,0.673%
12,CCC(C)(C)n1nnnc1CN1CCN(C(c2ccccc2)c2ccccc2)CC1,-0.685%
13,CCCNS(=O)(=O)c1ccc(OCC(=O)OC)cc1,9.6%
14,COc1ccc(C(=O)NCc2nnc(SCC(=O)NC3CCCCC3)n2C)cc1,0.192%
15,O=C(Nc1ccc(OC(F)(F)F)cc1)Nc1cccc([N+](=O)[O-])c1,15.5%
16,COc1ccccc1OCC(=O)NCCC1=CCCCC1,-11.6%
17,O=C(Nc1cccc(C(F)(F)F)c1)c1scc2c1OCCO2,5.61%
18,C=CCSc1ncc(C#N)c(N)n1,-6.13%
19,Cc1ccc(Cn2c(C(C)Nc3nc(-c4ccc(F)cc4)cs3)nc3cc(C(F)(F)F)ccc32)cc1 (stereo not shown),12.7%
20,O=C(NCc1ccccn1)c1cc(-c2ccncc2)nc2ccccc12,-25.6%
21,CC1(C)CC(=O)C(C(N)=NC(=O)c2ccc([N+](=O)[O-])cc2)=C(O)C1,19%
22,Cc1ccc(SCC(=O)Nc2nnc(-c3ccco3)o2)cc1,-14.6%
